Data taken from the supplement of paper PMC8728848.
The list shows a part of the results.

Columns and labels:
Experiment in all cases: glycan array binding signal (z-score within array); higher = stronger binding
Details in all cases: glycan notation: IUPAC condensed, linker removed
Fuc(a1-2)Gal = molecular target: Fuc(a1-2)Gal
How it was run: (§1)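 Glycan array data came from 3228 arrays in the Consortium for Functional Glycomics database, and only arrays with an available protein sequence were kept. Glycan names were put into IUPAC-condensed notation, and columns mapping to the same glycan were averaged. The binding signal is a within-array Z-score, averaged across arrays of one protein sequence run at different concentrations or buffers and across linkers. A negative Z-score can be read as non-binding.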

Fuc(a1-2)Gal(b1-3)GalNAc = molecular target: Fuc(a1-2)Gal(b1-3)GalNAc
How it was run: as §1

[1] = molecular target: Fuc(a1-2)Gal(b1-3)GalNAc(a1-3)[Fuc(a1-2)]Gal(b1-4)Glc
How it was run: as §1

[2] = molecular target: Fuc(a1-2)Gal(b1-3)GalNAc(a1-3)[Fuc(a1-2)]Gal(b1-4)GlcNAc
How it was run: as §1

[3] = molecular target: Fuc(a1-2)Gal(b1-3)GalNAc(b1-3)Gal
How it was run: as §1

[4] = molecular target: Fuc(a1-2)Gal(b1-3)GalNAc(b1-3)Gal(a1-4)Gal(b1-4)Glc
How it was run: as §1

[5] = molecular target: Fuc(a1-2)Gal(b1-3)GalNAc(b1-4)[Neu5Ac(a2-3)]Gal(b1-4)Glc
How it was run: as §1

Fuc(a1-2)Gal(b1-3)GlcNAc = molecular target: Fuc(a1-2)Gal(b1-3)GlcNAc
How it was run: as §1

[6] = molecular target: Fuc(a1-2)Gal(b1-3)GlcNAc(b1-2)Man(a1-3)[Fuc(a1-2)Gal(b1-3)GlcNAc(b1-2)Man(a1-6)]Man(b1-4)GlcNAc(b1-4)GlcNAc
How it was run: as §1

[7] = molecular target: Fuc(a1-2)Gal(b1-3)GlcNAc(b1-2)Man(a1-3)[Fuc(a1-2)Gal(b1-3)GlcNAc(b1-2)Man(a1-6)]Man(b1-4)GlcNAc(b1-4)[Fuc(a1-6)]GlcNAc
How it was run: as §1

[8] = molecular target: Fuc(a1-2)Gal(b1-3)GlcNAc(b1-3)Gal(b1-4)Glc
How it was run: as §1

[9] = molecular target: Fuc(a1-2)Gal(b1-3)GlcNAc(b1-3)GalNAc
How it was run: as §1

[10] = molecular target: Fuc(a1-2)Gal(b1-3)GlcNAc(b1-3)[Fuc(a1-2)Gal(b1-3)GlcNAc(b1-6)]GalNAc
How it was run: as §1

[11] = molecular target: Fuc(a1-2)Gal(b1-3)GlcNAc(b1-3)[Gal(b1-4)GlcNAc(b1-6)]Gal(b1-4)Glc
How it was run: as §1

[12] = molecular target: Fuc(a1-2)Gal(b1-3)GlcNAc(b1-3)[Neu5Ac(a2-6)Gal(b1-4)GlcNAc(b1-6)]Gal(b1-4)Glc
How it was run: as §1

[13] = molecular target: Fuc(a1-2)Gal(b1-3)GlcNAc6S
How it was run: as §1

[14] = molecular target: Fuc(a1-2)Gal(b1-3)[Fuc(a1-4)]GlcNAc
How it was run: as §1

[15] = molecular target: Fuc(a1-2)Gal(b1-3)[Fuc(a1-4)]GlcNAc(b1-2)Man(a1-3)[Fuc(a1-2)Gal(b1-3)[Fuc(a1-4)]GlcNAc(b1-2)Man(a1-3)]Man(b1-4)GlcNAc(b1-4)GlcNAc
How it was run: as §1

[16] = molecular target: Fuc(a1-2)Gal(b1-3)[Fuc(a1-4)]GlcNAc(b1-2)Man(a1-3)[Fuc(a1-2)Gal(b1-3)[Fuc(a1-4)]GlcNAc(b1-2)Man(a1-6)]Man(b1-4)GlcNAc(b1-4)[Fuc(a1-6)]GlcNAc(b1-4)[Fuc(a1-6)]GlcNAc
How it was run: as §1

[17] = molecular target: Fuc(a1-2)Gal(b1-3)[Fuc(a1-4)]GlcNAc(b1-3)[Fuc(a1-3)[Gal(b1-4)]GlcNAc(b1-6)]Gal(b1-4)Glc
How it was run: as §1

[18] = molecular target: Fuc(a1-2)Gal(b1-3)[Fuc(a1-4)]GlcNAc(b1-3)[Gal(b1-4)GlcNAc(b1-6)]Gal(b1-4)Glc
How it was run: as §1

Fuc(a1-2)Gal(b1-4)Glc = molecular target: Fuc(a1-2)Gal(b1-4)Glc
How it was run: as §1

Fuc(a1-2)Gal(b1-4)Glc6S = molecular target: Fuc(a1-2)Gal(b1-4)Glc6S
How it was run: as §1

Fuc(a1-2)Gal(b1-4)GlcNAc = molecular target: Fuc(a1-2)Gal(b1-4)GlcNAc
How it was run: as §1

[19] = molecular target: Fuc(a1-2)Gal(b1-4)GlcNAc(b1-2)Man
How it was run: as §1

[20] = molecular target: Fuc(a1-2)Gal(b1-4)GlcNAc(b1-2)Man(a1-3)[Fuc(a1-2)Gal(b1-4)GlcNAc(b1-2)Man(a1-6)]Man(b1-4)GlcNAc(b1-4)GlcNAc
How it was run: as §1

[21] = molecular target: Fuc(a1-2)Gal(b1-4)GlcNAc(b1-2)Man(a1-3)[Fuc(a1-2)Gal(b1-4)GlcNAc(b1-2)Man(a1-6)]Man(b1-4)GlcNAc(b1-4)[Fuc(a1-6)]GlcNAc
How it was run: as §1

[22] = molecular target: Fuc(a1-2)Gal(b1-4)GlcNAc(b1-2)[Fuc(a1-2)Gal(b1-4)GlcNAc(b1-4)]Man(a1-3)[Fuc(a1-2)Gal(b1-4)GlcNAc(b1-2)Man(a1-6)]Man(b1-4)GlcNAc(b1-4)GlcNAc
How it was run: as §1

[23] = molecular target: Fuc(a1-2)Gal(b1-4)GlcNAc(b1-3)Gal(b1-4)GlcNAc
How it was run: as §1

[24] = molecular target: Fuc(a1-2)Gal(b1-4)GlcNAc(b1-3)Gal(b1-4)GlcNAc(b1-2)Man(a1-3)[Fuc(a1-2)Gal(b1-4)GlcNAc(b1-3)Gal(b1-4)GlcNAc(b1-2)Man(a1-6)]Man(b1-4)GlcNAc(b1-4)GlcNAc
How it was run: as §1

B1: RBMC1 (Vibrio cholerae) (protein)
chain: QQSQRVVTADNLMYLRSGFAIDAIGTTVNNLVGGPVQGTNGGVLRAPIALDQLQSVEVTSGLYNWGGYHIVAIKFTMKDGSSVLLGSTHYASNKKVETYTVPQGKRIKQINVWTGGWLVEGFQFVY
How did the “glycan array binding signal (z-score)” value (Fuc(a1-2)Gal) turn out when B1 was run?
Its value is -0.366.

And the “glycan array binding signal (z-score)” value (Fuc(a1-2)Gal(b1-3)GalNAc)?
Its value is -0.159.

What about the “glycan array binding signal (z-score)” value [1] of the same binder?
Its value is -0.383.

And the “glycan array binding signal (z-score)” value [2]?
The value was -0.356.

And the “glycan array binding signal (z-score)” value [3]?
The value was -0.148.

And the “glycan array binding signal (z-score)” value [4]?
The value was -0.293.

What about the “glycan array binding signal (z-score)” value [5] of the same binder?
The value was -0.393.

What about the “glycan array binding signal (z-score)” value (Fuc(a1-2)Gal(b1-3)GlcNAc) of the same binder?
The value was -0.273.

And the “glycan array binding signal (z-score)” value [6]?
The value was 1.37.

And the “glycan array binding signal (z-score)” value [7]?
Its value is -0.102.

And the “glycan array binding signal (z-score)” value [8]?
The value was -0.346.

And the “glycan array binding signal (z-score)” value [9]?
The value was -0.195.

And the “glycan array binding signal (z-score)” value [10]?
The value was 0.134.

And the “glycan array binding signal (z-score)” value [11]?
Its value is -0.206.

What about the “glycan array binding signal (z-score)” value [12] of the same binder?
Its value is -0.436.

What about the “glycan array binding signal (z-score)” value [13] of the same binder?
The value was -0.359.

What about the “glycan array binding signal (z-score)” value [14] of the same binder?
Its value is -0.374.

And the “glycan array binding signal (z-score)” value [15]?
The value was -0.195.

What about the “glycan array binding signal (z-score)” value [16] of the same binder?
Its value is -0.317.

What about the “glycan array binding signal (z-score)” value [17] of the same binder?
Its value is -0.178.

And the “glycan array binding signal (z-score)” value [18]?
Its value is -0.176.

And the “glycan array binding signal (z-score)” value (Fuc(a1-2)Gal(b1-4)Glc)?
Its value is -0.346.

And the “glycan array binding signal (z-score)” value (Fuc(a1-2)Gal(b1-4)Glc6S)?
Its value is -0.119.

And the “glycan array binding signal (z-score)” value (Fuc(a1-2)Gal(b1-4)GlcNAc)?
The value was -0.362.

What about the “glycan array binding signal (z-score)” value [19] of the same binder?
Its value is -0.233.

And the “glycan array binding signal (z-score)” value [20]?
Its value is 0.229.

What about the “glycan array binding signal (z-score)” value [21] of the same binder?
The value was -0.042.

And the “glycan array binding signal (z-score)” value [22]?
The value was -0.074.

What about the “glycan array binding signal (z-score)” value [23] of the same binder?
The value was -0.313.

And the “glycan array binding signal (z-score)” value [24]?
Its value is 2.16.
